Source: patent publication US12616706B2, “Compositions and methods of use comprising substances with neural plasticity actions administered at non-psychedelic/psychotomimetic dosages and formulations” (Arbormentis LLC, priority 2019, dated 2026)

System: ARPE-19 cells
Assay: L-glutamate-induced cytotoxicity, cell viability (ATPlite)
Details: psilocin 0.025 to 0.1 μM, 6 h pretreatment, 1 mM L-Glu

CN(C)CCc1c[nH]c2cccc(O)c12 [psilocin]
Reduction of cell viability induced by L-glutamate: counteracted the observed reduction of cell viability
